# According to publication PMC4336329 (PLoS ONE, 2015):
# Screen size: about 310,000 compounds; about 14,000 (4.5%) showed an effect of 50% or more. The effect is printed as a negative number. The list shows a part of the results.
# Target: human ether-à-go-go-related gene (hERG) potassium channel (human, UniProt Q12809)
# Assay: primary screen, population patch clamp on CHO cells stably expressing hERG
# 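Note: peak tail current of the secondary pulse compared with the same well before compound.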
# Sequence of human ether-à-go-go-related gene (hERG) potassium channel (Q12809 whole entry, looked up): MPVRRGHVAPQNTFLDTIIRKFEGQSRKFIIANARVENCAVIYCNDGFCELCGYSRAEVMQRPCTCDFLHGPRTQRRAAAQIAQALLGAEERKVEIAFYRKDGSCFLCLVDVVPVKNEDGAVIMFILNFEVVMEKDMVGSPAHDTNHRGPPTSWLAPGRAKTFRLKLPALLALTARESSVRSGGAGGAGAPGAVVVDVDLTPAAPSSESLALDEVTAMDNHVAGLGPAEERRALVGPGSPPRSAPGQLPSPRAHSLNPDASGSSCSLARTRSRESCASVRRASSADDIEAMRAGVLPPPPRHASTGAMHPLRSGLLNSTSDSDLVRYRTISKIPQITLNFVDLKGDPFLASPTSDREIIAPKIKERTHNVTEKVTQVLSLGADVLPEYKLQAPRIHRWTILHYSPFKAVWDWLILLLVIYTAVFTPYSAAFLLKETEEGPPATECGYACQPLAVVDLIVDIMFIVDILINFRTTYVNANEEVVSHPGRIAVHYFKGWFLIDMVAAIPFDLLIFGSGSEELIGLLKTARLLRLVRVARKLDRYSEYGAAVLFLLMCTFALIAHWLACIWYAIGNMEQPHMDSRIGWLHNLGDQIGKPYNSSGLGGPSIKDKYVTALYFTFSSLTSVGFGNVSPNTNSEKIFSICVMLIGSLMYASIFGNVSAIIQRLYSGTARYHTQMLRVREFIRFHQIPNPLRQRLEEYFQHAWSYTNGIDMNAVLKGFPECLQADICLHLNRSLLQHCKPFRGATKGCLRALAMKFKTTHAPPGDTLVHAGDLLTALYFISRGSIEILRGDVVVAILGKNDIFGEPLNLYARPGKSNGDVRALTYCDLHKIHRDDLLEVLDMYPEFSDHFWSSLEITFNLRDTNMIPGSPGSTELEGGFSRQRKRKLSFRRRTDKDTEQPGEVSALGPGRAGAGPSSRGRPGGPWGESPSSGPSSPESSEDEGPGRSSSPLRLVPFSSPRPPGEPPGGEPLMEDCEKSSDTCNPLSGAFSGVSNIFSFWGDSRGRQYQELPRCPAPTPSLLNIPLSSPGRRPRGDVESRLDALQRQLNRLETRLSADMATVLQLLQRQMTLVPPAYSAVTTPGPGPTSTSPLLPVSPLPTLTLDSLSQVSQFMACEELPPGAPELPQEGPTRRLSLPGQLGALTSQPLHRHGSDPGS
row,Structure (SMILES),"hERG current change (%, negative = inhibition) at 10uM [%]"
1,CCOC(=O)Nc1n[nH]c(NC(=O)OCC)c1[N+](=O)[O-],5.13
2,O=C(COc1ccccc1Cl)Nc1nc(-c2cccs2)cs1,2.85
3,CCN(CC)CCNC(=S)Nc1ccc(Cl)cc1,-21.7
4,CCN1CCN(S(=O)(=O)c2ccc(Cl)c(C(=O)Nc3ccccc3N3CCCC3)c2)CC1,-24.5
5,CC(c1ccccc1)n1c(N2CCNCC2)nc2c1c(=O)[nH]c(=O)n2C (stereo not shown),6.32
6,O=[N+]([O-])c1ccc(N2CCCC2)cc1NC1CC1,-0.823
7,COc1cc(/C=C2\SC(=S)N(c3cccnc3)C2=O)ccc1O,5.42
8,CC(C)[C@@H](C(=O)N[C@@H](C(=O)O)c1ccccc1)N1C(=O)N2CCc3c([nH]c4ccccc34)[C@@]2(C)C1=O,3.07
9,CN(CC(=O)Nc1ccccc1Cl)CC(=O)N1CCc2ccccc21,-8.36
10,COc1ccc(CNC(=O)CN(C(=O)CCC(=O)Nc2ccccn2)c2ccccc2OC)cc1,-15.4
11,C=C1CCN([C@@H](Cc2ccccc2)C(=O)NCc2ccccc2)S(=O)(=O)c2ccccc21,-9.46
12,Cc1ccc(-n2nc(C)c(C(=O)N3CCN(C(=O)c4ccco4)CC3)c2-n2cccc2)cc1,-26.1
13,CSCCC(NS(=O)(=O)c1ccc(C)cc1)C(=O)Nc1ccc(C)cn1 (stereo not shown),2.68
14,CCOC(=O)/C=C1\CN(C(C)c2ccccc2)S(=O)(=O)c2ccccc21 (stereo not shown),-6.23
15,COc1cc(OC)c(NS(=O)(=O)c2cc3[nH]c(=O)c(=O)[nH]c3cc2C)cc1Cl,24
16,COc1ccccc1/C=C/C=N/n1c(-c2ccccn2)n[nH]c1=S,14.8
17,COc1cc(/C=c2\s/c(=C\C(=O)C(C)(C)C)[nH]c2=O)cc(OC)c1OC,-7.35
18,CC1CCCCC1NC(=O)Cn1nc(-c2ccccc2)ccc1=O (stereo not shown),-4.3
19,CC(C)CNc1nc(Oc2ccc(=O)[nH]n2)nc(N2CCOCC2)n1,7.99
20,CC(C)N(Cc1cc2ccccc2[nH]c1=O)C(=O)C1CCCCC1,-14.5
21,CCCN(C(=O)COC(=O)c1[nH]c(C)c(C(=O)OC)c1C)c1c(N)n(Cc2ccccc2)c(=O)[nH]c1=O,16.2
22,O=C(Cn1cnc(S(=O)(=O)N2CCCCC2)c1)NCc1ccco1,8.34

row,Structure (SMILES),"hERG current change (%, negative = inhibition) at 10uM [%]"
1,Cc1cc(C)c2c(=O)n(CC(=O)Nc3cccc(Cl)c3C)sc2n1,1.13
2,C=C(C)CSc1nnc2[nH]c(=O)cc(N)n12,14.7
3,c1ccc(P(c2ccccc2)c2ccccn2)cc1,-40.1
4,C[N+](C)(CC#Cc1ccccc1)CC(=O)c1ccccc1.[Br-],-13.5
5,O=c1[nH]ncc2c3ccccc3n(Cc3ccccc3)c12,15.8
6,Cc1noc(C)c1COC(=O)c1cnc(Cl)c(Cl)c1,-7.26
7,O=C(CSc1ncnc2ccccc12)NCc1ccc2c(c1)OCO2,-16.9
8,COc1cc(NC(=O)CN(c2ccc(C)cc2)S(=O)(=O)c2c(C)noc2C)cc(OC)c1,16.3
9,O=C(O)Cn1nc(-c2ccc(F)cc2)oc1=O,8.59
10,CCC(C(=O)NCc1ccc(C)cc1)c1ccccc1 (stereo not shown),-1.35
11,CCOc1ccccc1NC(=S)N1CCN(c2nc(-c3ccc(F)cc3)cs2)CC1,19.5
12,CCCCC(=O)Nc1c2c(nn1-c1ccc(C)cc1)CS(=O)(=O)C2,-7.52
13,CCOc1ccc(CCNC(=O)c2ccc(S(=O)(=O)N3CCCC3)cc2)cc1OCC,-8.47
14,O=C(Nc1ccccc1O)c1ccc(NC(=O)C2CC2)cc1,9.92
15,Cc1c(NC(=O)C2CCN(S(=O)(=O)c3ccccc3)CC2)c(=O)n(-c2ccccc2)n1C,4.47
16,CCN1CCN(C(=O)c2ccccc2NS(=O)(=O)c2ccc(Cl)cc2)CC1.Cl,0.707
17,COc1cc(C=O)ccc1OS(=O)(=O)c1ccccc1[N+](=O)[O-],4.1
18,CCN(CC)CCCN=Cc1c(O)n(Cc2ccccc2)c(=O)c2ccccc12,-76.7
19,CN(C)Cc1c(C(=O)N/N=C/c2cccc(OCc3c(F)cccc3Cl)c2)nnn1-c1nonc1N,18.1
20,CC1CCN(CCOCCOc2ccc(Br)cc2Cl)CC1.O=C(O)C(=O)O,-75.5
21,Cn1cccc1Cc1nnc(SCC(=O)Nc2nccs2)n1CCc1ccccc1,-9.58
